# Source: PubChem BioAssay AID1508642 (National Center for Advancing Translational Sciences (NCATS), 2021)
# Among all 43,000 compounds or so, about 200 (0.47%) were called active. Inconclusive results (about 12%) are left out. Calls come from the whole dose curve; as a rule, active = well fitted cell-killing curve with a large enough effect; inconclusive = small, poorly fitted or top-dose-only effect, or effect the other way; inactive = flat fitted curve, though single readings scatter. The list shows a part of the results.
# Assay: Cell viability qHTS assay in S16 Pmp22-F2sN cells; note: nearly all actives have a fitted effect of over 65% in size
# Details: S16 Pmp22-F2sN Schwann cells viability, CellTiter-Glo, 24 h; series mostly up to 57.5 µM; activity change, negative = cytotoxicity: at the top concentration
# Procedure, shortened: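 S16 Pmp22-F2sN Schwann cells (500-1,000/well) in phenol-red-free DMEM with 10% FBS received 23 nL compound by pin tool for 24 h at 37 °C. Viability was then read as CellTiter-Glo luminescence after 15 min at room temperature.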
# % is set by controls: 0 for no effect and ±100 for the full control effect.
row,SMILES,"activity change, negative = cytotoxicity"
1,COc1ccccc1CNC(=O)C(=O)NCC(c1cccs1)S(=O)(=O)c1cccs1 (stereo not given),inactive: -2.31%
2,Cc1ccc2oc(C(=O)N(Cc3sccc3C)C3CCS(=O)(=O)C3)c(C)c2c1 (stereo not given),inactive: -4.93%
3,COc1cccc(CNC(=O)c2nc(Cn3nc(C)c(Br)c3C)no2)c1,inactive: -26%
4,CCOc1ccc(Nc2c(S(=O)(=O)c3ccc(C)cc3)cnc3ccc(F)cc23)cc1,inactive: -17.3%
5,Cc1ccc2[nH]c(=O)c3cc(C(=O)NC4CCC(C)CC4)sc3c2c1 (stereo not given),inactive: 18.3%
6,CCOc1ccc(NC(=O)c2cc(S(=O)(=O)N3CCN(c4ccccc4F)CC3)ccc2F)cc1,inactive: -12.7%
7,Cc1c(Cl)cccc1NC(=O)CSc1nc(=O)n(Cc2ccco2)c2c1CCC2,inactive: -29.1%
8,Cc1ccc(CCNC(=O)CN(c2ccc(C)cc2)S(=O)(=O)N(C)C)cc1,inactive: 0.268%
9,COc1ccccc1C(=O)Nc1nnc2n1CCS2,inactive: -9.68%
10,COc1cccc2c1cc1c(=O)n(CC(=O)NCc3ccco3)nc(C)n12,inactive: -2.9%
11,O=C(NCCc1ccc(Cl)cc1)c1ccc(CS(=O)(=O)c2ccc(Cl)cc2)o1,inactive: -28.5%
12,Cc1cccc(C)c1NC(=O)C(NS(=O)(=O)c1cccs1)c1ccccc1 (stereo not given),inactive: -4.87%
13,O=C(Cn1ccn(-c2ccc(F)cc2)c(=O)c1=O)Nc1ccc(F)cc1,inactive: 0.117%
14,CCN(CC)C(=O)c1sc2c(c1C)c(=O)n(CCc1ccccc1)c(=O)n2Cc1cc(C)ccc1C,inactive: 18.1%
15,O=C(CSc1nnc(-c2cccs2)o1)Oc1ccccc1Cl,inactive: 7.61%
16,CC(C)(C)C(=O)NCC(c1ccc2c(c1)OCO2)N1CCOCC1 (stereo not given),inactive: 5.57%
17,COc1cccc(N2CCN(C(=O)c3cc4c(s3)-c3ccccc3OC4)CC2)c1,inactive: 5.54%
18,COc1cc(CNC(=O)c2ccc3c(c2)c(C)c(C)n3Cc2cccc(C)c2)cc(OC)c1OC,inactive: -17.6%
19,CCCC(=O)OCc1cnc(C)c2oc(=O)c(C(=O)Nc3cccc(C(F)(F)F)c3)cc12,inactive: 16.5%
20,COc1ccc(N(Cc2cccs2)C(=O)c2ccc(OC)c(Cl)c2)cc1,inactive: -1.02%
21,Cc1cccc(N2CCN(C(=O)C3CCN(S(=O)(=O)c4c(C)noc4C)CC3)CC2C)c1 (stereo not given),inactive: -2.64%
22,COc1ccc(NC(=O)Cn2cc(S(=O)(=O)c3ccccc3)c(=O)c3cc4c(cc32)OCO4)cc1,inactive: -0.408%
23,Cc1c(C(=O)Nc2ccccc2)sc2nc(-c3cc4cc(Cl)ccc4oc3=O)[nH]c(=O)c12,inactive: 6.65%
24,CCCS(=O)(=O)c1c(S(=O)(=O)CCC)c2cc(C(C)(C)C)ccn2c1C(=O)c1ccccc1,inactive: -14%

row,SMILES,"activity change, negative = cytotoxicity"
1,COc1cccc(N2CCN(C(=O)C3CCN(S(=O)(=O)c4c(C)noc4/C=C/c4ccccc4F)CC3)CC2)c1,inactive: 5.81%
2,CCC(=O)Nc1ccccc1-c1nc2ccccc2n(CC(=O)Nc2ccccc2OC)c1=O,inactive: -16.8%
3,COc1ccc(-c2nc3scc(CCNS(=O)(=O)c4ccc(F)cc4C)n3n2)cc1,inactive: -9.6%
4,COC(=O)c1cc2oc3ccccc3c2n1Cc1ccc(Cl)cc1,inactive: 2.97%
5,CCC(Oc1ccc(F)cc1)C(=O)Nc1c(C(=O)c2ccc(C)cc2)oc2ccccc12 (stereo not given),inactive: 4.75%
6,CCn1cc(C(=O)N2CCN(c3ccccc3)CC2)c(=O)c2cc(S(=O)(=O)N3CCOCC3)ccc21,inactive: 9.85%
7,COc1ccc(NC(=O)c2ccc3nc(C(C)C)oc3c2)cc1OC,inactive: 0.249%
8,COc1ccc(N(C)C(=O)c2cn(C)c(=O)c3cc(OC)c(OC)cc23)cc1,inactive: 10.5%
9,Cc1ccc(Cn2c(CO)cnc2SCC(=O)Nc2ccc(C)c(Cl)c2)cc1,inactive: -14%
10,CCN(CC)CCNC(=O)c1cc2c(=O)n(C)c3cc(Cl)ccc3c2s1,inactive: 17.1%
11,COc1cccc(CN2c3ccccc3-c3nc(SCC(=O)Nc4ccccc4Cl)ncc3S2(=O)=O)c1,inactive: 13.8%
12,Cc1ccc(-c2ccc(=O)n(CCC(=O)NCCc3ccccc3)n2)cc1,inactive: 10%
13,O=C1CSC2(C(=O)N(Cc3cccc(F)c3)c3ccccc32)N1c1cccc(C(F)(F)F)c1 (stereo not given),inactive: 0.32%
14,CC(C)COc1ccc(C(=O)N2CCN(CCc3ccncc3)CC2)cc1,inactive: 9.2%
15,CCCCN(C)CCNC(=O)c1cc2c(=O)n(C)c3ccccc3c2n1C,inactive: -4.65%
16,COc1ccc(CNC(=O)CCc2c(C)c3cc4c(C)coc4c(C)c3oc2=O)cc1OC,inactive: 11%
17,CCCc1nn2c(=O)cc(COC(=O)c3ccc(NC(=O)COc4ccccc4)cc3)nc2s1,inactive: -1.66%
18,N#Cc1ccccc1NS(=O)(=O)c1ccc(N2CCCCS2(=O)=O)cc1,inactive: -5.05%
19,CN1C(=O)c2ccccc2Sc2ccc(NC(=O)c3ccc(C(F)(F)F)cc3)cc21,inactive: -10.9%
20,Cc1nn2c(C)c(C(=O)NC(C)(C)C)cnc2c1-c1ccc(F)cc1,inactive: 1.21%
21,COc1ccc(N2C(=O)CSC23C(=O)N(CC(=O)NCCc2ccccc2)c2ccccc23)cc1 (stereo not given),inactive: -1.63%
22,O=C(CSc1nc(=O)[nH]c2c1CCCC2)NCc1ccccc1,inactive: 1.13%
23,COc1ccccc1C(=O)Nc1ccc(C(=O)OCc2cc(=O)n3nc(C4CC4)sc3n2)cc1,inactive: 2.76%
24,COc1ccc(NC(=O)Cn2c(=O)n(Cc3ccccc3)c(=O)c3sc4ccccc4c32)cc1,inactive: 18.6%

row,SMILES,"activity change, negative = cytotoxicity"
1,CCOc1ccc(C(=O)Nc2ccc3oc(-c4ccc5ccccc5c4)nc3c2)cc1,inactive: -1.1%
2,CCCCNC(=O)c1cc2n(n1)CCCN(Cc1ccc(C)cc1)C2=O,inactive: -0.156%
3,CCc1ccc(Cn2c(CNS(=O)(=O)c3ccc(C)c(C)c3)nc3cccnc32)cc1,inactive: -6.2%
4,Cc1ccc(N2CC(NC(=O)c3cc4ccccc4o3)CC2=O)cc1 (stereo not given),inactive: 4.02%
5,Cc1ccc(S(=O)(=O)c2c(O)cc(C)c(NS(=O)(=O)c3ccc(Cl)cc3)c2C)cc1,inactive: -13.6%
6,COc1ccccc1N1CCN(S(=O)(=O)c2c(C)nc3sccn3c2=O)CC1,inactive: 1.45%
7,Cc1cc(C)c2sc(N3CCN(C(=O)c4ccc(N(C)C)cc4)CC3)nc2c1,inactive: 0.823%
8,CC(C)c1nn2c(=O)cc(COC(=O)c3ccco3)nc2s1,inactive: 17.9%
9,CC(C)c1noc(-c2ccccc2OCC(=O)Nc2cccc([N+](=O)[O-])c2)n1,inactive: 11.9%
10,CC(C)Sc1ncc(Cl)c(C(=O)Nc2ccc(S(=O)(=O)N3CCCCC3)cc2)n1,inactive: -2.11%
11,CCN(CC)S(=O)(=O)c1ccc2c(c1)c(=O)c(C(=O)N1CCN(c3cc(Cl)ccc3C)CC1)cn2C,inactive: -3.48%
12,CC(=O)N1CCc2cc(Br)cc(S(=O)(=O)CCC(=O)N3CCN(c4ccccc4Cl)CC3)c21,inactive: 8.21%
13,Cc1ccc(CN(C(=O)COc2cc(C)c(Cl)c(C)c2)c2ccccn2)o1,inactive: -2.97%
14,CCOc1ccc(-c2c(C)nn3c(C)c(C(=O)Nc4cc(C)cc(C)c4)cnc23)cc1OCC,inactive: 2.24%
15,Cc1ccc(NC(=O)C2CCN(S(=O)(=O)c3cccc4nonc34)CC2)cc1C,inactive: 10.3%
16,COc1cc(C2CC(=O)Oc3c2c(=O)[nH]c2ccccc32)cc(OC)c1OC (stereo not given),inactive: 15.4%
17,Cc1ccc(-c2cc3nc(-c4ccccc4)cc(C(F)(F)F)n3n2)cc1,inactive: 3.01%
18,CCOc1ccc(Nc2c(S(=O)(=O)c3ccccc3)cnc3ccc(F)cc23)cc1,inactive: -15.3%
19,O=C(Oc1ccccc1F)c1nc(SCc2ccc(F)cc2)ncc1Cl,inactive: 3.41%
20,Cc1c(Cl)cccc1NC(=O)CCOc1ccccc1,inactive: -20.5%
21,CCOc1ccc(Cn2c(=O)sc3ccccc32)cc1,inactive: 1.37%
22,Cc1cccn2c(=O)c3cc(C#N)c(=O)n(-c4nnc(SCc5ccc(Cl)cc5)s4)c3nc12,inactive: -5.51%
23,CC1=C(C(=O)Nc2ccccc2C)C(c2ccccn2)n2ncnc2N1 (stereo not given),inactive: -3.71%
24,Cc1cccc(C)c1NC(=O)CS(=O)(=O)c1nc(-c2ccc(Cl)cc2)cn1-c1ccccc1,inactive: -19.9%

row,SMILES,"activity change, negative = cytotoxicity"
1,CC(=O)N1CCc2cc(S(=O)(=O)NC(CC(C)C)C(=O)Nc3cc(C)cc(C)c3)ccc21 (stereo not given),inactive: 1.9%
2,CCOC(=O)c1nc(NCc2ccc(Cl)cc2)c2c(C)noc2n1,inactive: 11.7%
3,CCSc1ncc(Cl)c(C(=O)Nc2sc3c(c2C(=O)NCCCOC)CCCC3)n1,inactive: -5.15%
4,Cc1ccc(C)c(-c2ccc(=O)n(Cc3c(F)cccc3Cl)n2)c1,inactive: 0.289%
5,Cc1cc(C)c2c(c1)c(C)cc1nnc(SCc3ccccc3C#N)n12,inactive: 0.577%
6,Cc1ccc(NC(=O)CN2C(=O)COc3ccc(S(=O)(=O)NC4CCCC4)cc32)cc1N(C)C,inactive: 3.1%
7,Cc1ccc(C)c(Cn2c(=O)c3c(nc4n3CCN4c3ccccc3)n(C)c2=O)c1,inactive: 18.2%
8,CCOc1ccc(NC(=O)c2c(NCc3cc(OC)c(OC)cc3OC)sc3c2CCCC3)cc1,inactive: -4.99%
9,CCC(=O)N1c2ccccc2CC1C(=O)NCCN1CCN(c2cc(Cl)ccc2C)CC1 (stereo not given),inactive: -1.13%
10,O=C(Cc1ccc(Cl)cc1)Nc1ccc2oc(-c3ccc(F)cc3)nc2c1,inactive: 16.5%
11,COC(=O)c1ccccc1NC(=O)C(Cc1ccccc1)N1Cc2ccccc2C1=O (stereo not given),inactive: 4.5%
12,Cc1cc(C)cc(OCC(=O)N2CCC(c3nc4ccccc4o3)CC2)c1,inactive: 0.591%
13,COc1ccc(C)cc1NC(=O)Cn1cc(S(=O)(=O)N2CCC(C)CC2)c2ccccc2c1=O,inactive: -8.06%
14,N#C/C(=C\c1ccc(F)cc1)c1nc(-c2ccc(-c3ccccc3)cc2)cs1,inactive: 11%
15,COCCCNc1nc2c(c(=O)[nH]c(=O)n2C)n1CC(O)COc1ccc(Cl)cc1 (stereo not given),inactive: -2.46%
16,COc1cccc(CC(=O)Nc2c(C(=O)N3CCN(c4ccccc4F)CC3)oc3ccccc23)c1,inactive: -22.5%
17,Cc1cc(C)c2c(=O)c3c(oc2c1)C(=O)N(CCCOC(C)C)C3c1ccccc1F (stereo not given),inactive: 0.139%
18,COc1ccc(NC(=O)Cn2c(-c3ccc(F)cc3)cc(C(C)=O)c2C)c(OC)c1,inactive: -9.83%
19,CC(=O)Nc1ccc(S(=O)(=O)NCC2CCC(C(=O)NCCc3ccc(C)cc3)CC2)cc1 (stereo not given),inactive: 2.46%
20,COc1ccc(CCNC(=O)Cn2c(=O)nc(-c3ccccc3)c3cc(Cl)ccc32)cc1OC,inactive: -15.2%
21,CC(=O)c1cccc(NC(=O)c2ccc3c(c2)N(Cc2ccc(C)cc2)CCS3)c1,inactive: 4.12%
22,Clc1ccc(-c2cn3cc(Cc4ccccc4)sc3n2)cc1,inactive: 23.3%
23,CCc1ccc(NC(=O)CNC(=O)Cn2c(C)cc3ccccc3c2=O)cc1,inactive: 9.17%
